# Laboratory results reported in the RNAGym collection of RNA variant scans (doi:10.1093/nar/gkz1192).
# Read counts are not given, so values of variants with three or more changes are uncertain.
# B1: CPEB3 Ribozyme (parent)
# chain: UAACAGGGGGCCACAGCAGAAGCGUUCACGUCGCAGCCCCUGUCAGAUUCUGGUGAAUCUGCGAAUUCUGCUGUAUAUCUC
# Variants of: B1
# Assay: self-cleavage, relative activity (ratio to wild type); higher = more cleavage; in vitro, sequencing
# Summary of the method: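 Relative activity compares each variant's cleaved/total read fraction with that of the unmutated ribozyme. To get these fractions, barcoded CPEB3 ribozyme libraries from rounds of error-prone PCR were transcribed with T7 RNA polymerase for 5 hours at 37°C and then given 15 min of DNase I treatment before EDTA was added. The RNAs were reverse transcribed with template switching and sequenced on Illumina, and DNA sequencing linked barcodes to variants. A minimum of 5 reads applied, and three batches were averaged.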
row,Variant,self-cleavage
1,UAACAGGGGGCCACAGCAGAGGCGUUCGCGUCGCAGCCCCUGUCAGAUUCUGGUGUAUCUUCGAAUCCUGCUGUAUCUCUC,0.04
2,UAACAGGGGGCCACAGCAGAGGCGUUCACGUCGCGGCCCCGGUCAGAUUCUGGUGAAUCUGCGAAUGCUGCUGUAUAUCUC,0.2
3,UAACAGGGGGCCACAGCAGAGGCGUUCACGUCGCUGCCCCUGUCAGAUUCUGGUGAAUCUGCGAAUCCUGCUGUAUAUCCC,0.08
4,UAACAGGGGGCCACAGCAGAGGCGUUCACGUCGCGGCCCCUGUCAGAUUCAGGUGAAUCUGCGAGUUCUGCUGUAUACCCC,0.71
5,UAACAGGGGGCCACAGCAGAGGCGUUCACGUCGCAGCCCCUGUCGGAUUCUGGUGAAUCCGCGAAUUCUGCUGUAUAUCUC,0.81
6,UAACAGGGGGCCACAGCAGAGGCGUUCACGUCGCAGCCCCUGUCCGGUUCUGGUGAAUCUGCGAAUUCUGCUGUAUAUCUC,0.27
7,UAACAGGGGGCCACAGCAGAGGCGUUCACGUCGCUGCCCCUGUCAGACUCUGGUGAAUCUGCGGAUUCUGCUGUAUAUCUC,0.07
8,UAACAGGGGGCCACAGCAGAGGCGUUCACGUCGCAGCCCCUGUCGGAUCCUGGUGAAUCCGCGAAUUCUGCUGUAUACCUC,0.13
9,UAACAGGGGGCCACAGCAGAGGCGUUCGCGUCGCAGCCCUUGCCAGAUCCUGGUGAAUCUGCGAAUUCUGCUGUAUAUGUC,0.01
10,UAACAGGGGGCCACAGCAGAGGCGUUCUCGUCGCAGCCCCUGUCGGAUCCUGGUGAAUCUGCGAAUUCUGCUGUAUAUCUC,0.2
11,UAACAGGGGGCCACAGCAGAGGCGUUCGCGUCGCAGCCCCUGUCAGAUUCUGGUGAAUCAGCGAGUUCUGCCGUUCAUCUC,0.16
12,UAACAGGGGGCCACAGCAGAGGCGUUCACGUCGCGGCCCCUGACAGAUUCUGGUGAAUCCGCGAAUUCUGUUGUAUAUCUC,0.45
13,UAACAGGGGGCCACAGCAGAGGCGUUCGCGUCGCAGCCCCUGUCAGAUUCUGGUGAAUCUGCGAAUGCUGCUGUAUUUCUC,0.13
14,UAACAGGGGGCCACAGCAGAGGCGUUCGCGUCGCAGCCCCUGUCAGAUUCUGGUGAAUCUGCGAAUUCUGCUGUAUACCUC,0.21
15,UAACAGGGGGCCACAGCAGAGGCGUUCACGUCGCUGCCCCUGUCAGAUUCUGGUGAAUCUGCGAAUUCUGCUGUAAAUCUC,0.17
16,UAACAGGGGGCCACAGCAGAGGCGUUCGCGUCGCAGCCCCUGUCAGAUUCUGGUGAAUCUGCGAAUUCUGCUAAAUAUCUU,0.91
17,UAACAGGGGGCCACAGCAGAGGCGUUCACGUCGCGGCCCCUGUCAGAUUCUGGUGGAUCUGCGAAUUCUGCCGUAUAUCUC,1.04

row,Variant,self-cleavage
1,UAACAGGGGGCCACAGCAGAGGCGUUCGCGUCACAGCCCCUGUCAGACUCUGGUGAAUCUGCGAAUUCUGCUGUAUAUCUC,0.09
2,UAACAGGGGGCCACAGCAGAGGCGUUCGCGUCGCAGCCCCUGUCAGAUUCUGGUGAUUCUGCGAAUUCAGCUGUAUAUCUC,0.06
3,UAACAGGGGGCCACAGCAGAGGCGUUCACGUCGCUGCCCCUGUCAGGUUCCGGAGAAUCUGCGAAUUCUGCUGUAUAUCUC,0.13
4,UAACAGGGGGCCACAGCAGAGGCGUUCACGUCGCAGCCCCUGUCGGGUUCUGGUGAAUCAGCGAAUUCUGCUGUAUAUCUC,0.17
5,UAACAGGGGGCCACAGCAGAGGCGUUCACGUCGCGGCCCCUGUCAGAUUCUGGUGAAUCUGCGAAUUCUGCUGUAUAACUC,1.44
6,UAACAGGGGGCCACAGCAGAGGCGUUCACGUCGCUGCCCCUGUCAGAUUCUGGUGAAUCUGCGGAUUCUGCUGAAUACCUC,0.1
7,UAACAGGGGGCCACAGCAGAGGCGUUCGCGUCGCAACCCCUGUCAGAUUCUGGUGGAUCUGCGAAUUCUGCUGUAUAUCUC,0.25
8,UAACAGGGGGCCACAGCAGAGGCGUUCGCGACGCAGCCCCUGUCAGAUUCCGGUGAAUCUGCGAAUUCUGCUGUUUAUCUC,0.08
9,UAACAGGGGGCCACAGCAGAGGCGUUCACGUCGCGGCCCCUGUCAGAUUCUGGUAAAUCUGCGAAUUCUGCUGUAUAUCUC,0.86
10,UAACAGGGGGCCACAGCAGAGGCGUUCGCCUCGCAGCCCCUGUCAGAUUCUGGUGAAUCUGCGAAUUCUGCAGUAUAUCUC,0.1
11,UAACAGGGGGCCACAGCAGAGGCGUUCGCGACGCAACCCCAGUCAGAUUCUGGUGGUUCUGCGAAUUCUGCUGUAUAUCUC,0.06
12,UAACAGGGGGCCACAGCAGAGGCGUUCGCGUCGCAGCCCCAGUCAGGCUCUGGUGAAUCUGCGAAUCCUGCUGUAUAUCUC,0.33
13,UAACAGGGGGCCACAGCAGAGGCGUUCGCGUCGCAGCCCCUGUCAGAUUCUAGUGAAUCUGCGAAUUCUGCUGUAUAUCUC,0.33
14,UAACAGGGGGCCACAGCAGAGGCGUUCACGUCGCGGCCCUUGUCAGAUUCUGGUGAAUCUGCGAAUUCUGCUGUAUAUCUC,1.11
15,UAACAGGGGGCCACAGCAGAGGCGUUCACGUCGCGGCCCCUGUCAGAUUCUGGUGAACCUGCGAAUUCUACUGUAUAUCUC,0.29
16,UAACAGGGGGCCACAGCAGAGGCGUUCACGUCGCUGCCCCUGUCAAAUUCCGGUGAAUCUGCGAAUUCUGCUGUAUAUCUC,0.08
17,UAACAGGGGGCCACAGCAGAGGCGUUCACGUCGCGGCCCCUGUCUGGUUCUGGUGAAUCUGCGAGUUCUGCAGUAUAUCUC,0.18
